Article PMC4336329 (PLoS ONE, 2015)
Hit rate of the full screen: of about 310,000 compounds, about 14,000 (4.5%) showed an effect of 50% or more. Effects have a minus sign here. This is one part of the list.

Target: human ether-à-go-go-related gene (hERG) potassium channel (human, UniProt Q12809)
Assay: primary screen, population patch clamp on CHO cells stably expressing hERG
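Note: peak tail current of the secondary pulse compared with the same well before compound.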

Chain of human ether-à-go-go-related gene (hERG) potassium channel (Q12809 whole entry, looked up): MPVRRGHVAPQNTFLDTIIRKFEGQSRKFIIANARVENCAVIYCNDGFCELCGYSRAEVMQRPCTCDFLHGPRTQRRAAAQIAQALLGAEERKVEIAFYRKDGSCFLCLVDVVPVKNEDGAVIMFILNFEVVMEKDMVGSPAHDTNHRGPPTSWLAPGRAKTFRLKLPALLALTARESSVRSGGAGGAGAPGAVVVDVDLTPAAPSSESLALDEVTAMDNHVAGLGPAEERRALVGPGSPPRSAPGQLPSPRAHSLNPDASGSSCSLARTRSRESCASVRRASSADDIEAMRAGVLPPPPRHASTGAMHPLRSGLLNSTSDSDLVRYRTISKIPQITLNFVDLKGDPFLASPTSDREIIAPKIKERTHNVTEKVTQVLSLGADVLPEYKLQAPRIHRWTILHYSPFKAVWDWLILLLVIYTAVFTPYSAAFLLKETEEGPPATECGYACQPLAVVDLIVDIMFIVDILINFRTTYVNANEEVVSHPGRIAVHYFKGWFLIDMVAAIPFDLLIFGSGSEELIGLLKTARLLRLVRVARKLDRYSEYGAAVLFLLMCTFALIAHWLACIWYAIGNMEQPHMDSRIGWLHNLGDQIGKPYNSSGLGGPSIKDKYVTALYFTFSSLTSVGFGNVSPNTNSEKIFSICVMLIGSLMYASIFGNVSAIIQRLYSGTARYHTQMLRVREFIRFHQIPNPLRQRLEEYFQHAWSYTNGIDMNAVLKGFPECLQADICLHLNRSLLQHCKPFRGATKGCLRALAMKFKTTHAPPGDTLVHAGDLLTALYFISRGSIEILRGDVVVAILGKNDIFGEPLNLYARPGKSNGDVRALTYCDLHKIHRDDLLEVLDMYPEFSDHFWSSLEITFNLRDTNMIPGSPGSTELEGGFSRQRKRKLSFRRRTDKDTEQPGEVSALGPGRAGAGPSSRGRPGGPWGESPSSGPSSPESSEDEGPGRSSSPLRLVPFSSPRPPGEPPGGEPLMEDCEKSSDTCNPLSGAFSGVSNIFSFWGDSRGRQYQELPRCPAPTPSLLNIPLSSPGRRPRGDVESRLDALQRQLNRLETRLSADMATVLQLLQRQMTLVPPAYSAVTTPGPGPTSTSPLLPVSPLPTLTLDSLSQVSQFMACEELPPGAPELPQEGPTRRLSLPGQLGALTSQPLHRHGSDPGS

| SMILES | hERG current change (%, negative = inhibition) at 10uM |
| --- | --- |
| COC(=O)c1ccccc1NC(=O)CSc1nc2c(c(=O)[nH]1)CCC2 | -7.46% |
| CCOc1ccc(CC(=O)NCCc2cnc[nH]2)cc1 | 4.45% |
| CCn1nc(C)c(C(=O)Nc2cc(Oc3ccc(Cl)cc3)cc([N+](=O)[O-])c2)c1C | -2.93% |
| CC(C)(C)NC(=O)CN1CCC(O)(c2ccccc2)CC1 | 13.5% |
| C=CCN=c1sc(C(=O)OC)cc(=O)n1CC=C | 6.63% |
| COc1ccc(NS(=O)(=O)c2ccc3c(c2)N(C(C)=O)CCO3)cc1 | 17.8% |
| CCOc1ccc(S(=O)(=O)N2CCC(C(=O)NCc3ccccn3)CC2)cc1C | -1.61% |
| C=CCn1c2ccccc2c(=O)c2cc(C#CC3(O)CCCCC3)ccc21 | 6.61% |
| CSc1nnc2c(n1)OC(C)N(C(=O)c1ccccc1)c1ccccc1-2 (stereo not shown) | 2.52% |
| COc1cc(/C=C2\NC(=O)NC2=O)cc(Br)c1OC | 1.71% |
| CN(Cc1ccccc1)C(=O)c1[nH]cnc1C(=O)Nc1ccon1 | -1.05% |
| CC(C)CC(=O)N1CCN(S(C)(=O)=O)CC1 | 5.15% |
| COc1cc2c(cc1OC)CC(=O)N(C)CC2 | 3.16% |
| COc1ccc(-n2nnnc2SCC(=O)c2ccc3c(c2)OCCO3)c(OC)c1 | 0.516% |
| CC(Sc1nnc(CNC(=O)c2ccco2)n1C)C(=O)Nc1nccs1 (stereo not shown) | 18% |
| COc1cccc(Nc2nc(NCCO)nc(N3CCCC3)n2)c1 | -15.8% |
| COc1cc(NS(=O)(=O)c2ccc3[nH]c(=O)oc3c2)cc(OC)c1 | 14.3% |
| CN(C)c1ccc(C(=O)OCC(=O)c2cccs2)cc1 | 2.74% |
| CC(C)CCCC(C)CCOC(=O)CN1CCCC1 (stereo not shown) | 11.5% |
| Cc1ccc(NC(=O)C2CCN(C(=O)c3ccc(F)cc3)CC2)nc1 | -15.4% |
| O=C(CCC1CCCC1)N1CCN(C(=O)c2ccco2)CC1 | -6.3% |
| CCCCn1c(=O)c(CCC(=O)OCC(=O)NC(=O)NCCOC)nc2ccccc21 | -5.88% |

| SMILES | hERG current change (%, negative = inhibition) at 10uM |
| --- | --- |
| COc1ccccc1-c1c(C(F)(F)F)oc2cc(OC(=O)c3ccccc3[N+](=O)[O-])ccc2c1=O | 16.6% |
| CCC1c2ccc(C)n2CCN1C(=O)Nc1ccccc1C(=O)OC (stereo not shown) | 6.11% |
| CN1CC(=O)N(CC(=O)Nc2ccc(F)cc2)c2ccccc2C1=O | 15% |
| O=C(NCc1ccccc1)Nc1cccn(Cc2ccc(F)cc2)c1=O | -5.34% |
| COc1ccccc1NC(=O)Cn1nc(-c2ccncc2)nc1SCC(=O)NC1CCCC1 | -20.2% |
| O=C(COc1ccccc1)N=C1SC2CS(=O)(=O)CC2N1CCc1ccccc1 (stereo not shown) | 9.55% |
| Cc1ccc(S(=O)(=O)NCC(=O)N(CC(=O)NC(C)(C)C)Cc2ccc3c(c2)OCO3)cc1 | 14.8% |
| COc1ccc(-c2cc(C(F)F)n3ncc(C(=O)N4CCCc5ccccc54)c3n2)cc1 | 11.2% |
| O=C(Nc1ccc(N2CCOCC2)cc1)c1ccc(-c2ccccc2[N+](=O)[O-])o1 | 15.9% |
| Nc1c(C(=O)O)sc2nc(-c3ccc(F)cc3)cc(-c3ccccc3)c12 | 8.62% |
| O=C(CNC(=S)NC(=O)c1cccs1)c1ccccc1 | 0.111% |
| O=C1c2cccc3cccc(c23)C(=O)N1CCCSc1ncn[nH]1 | -7.77% |
| O=S(=O)(NCCCO)c1ccc2c(c1)Cc1cc(S(=O)(=O)NCCCO)ccc1-2 | 4.49% |
| Cc1ccc(S(=O)(=O)Cn2nnnc2C(C(C)C)N2CCN(Cc3ccco3)CC2)cc1 (stereo not shown) | 17.9% |
| CCOC(=O)c1sc(SC)c2c1CCC/C2=N/OC | 5.08% |
| COc1ccc(-c2nnc(SCC(=O)N3CCCC3)o2)cc1 | 7.58% |
| COc1cc(C2NC(=O)NC(C)=C2C(=O)NCc2ccccc2)c(Cl)cc1O (stereo not shown) | 1.65% |
| CCCCCCCCO | 17.4% |
| O=C(CCNC(=O)c1ccc(Cl)cc1)Nc1cccc(S(=O)(=O)N2CCCCCC2)c1 | -57.3% |
| Fc1ccc(N2CCN(Cc3cnc(N4CCOCC4)s3)CC2)cc1 | -20% |
| Cc1ccc(S(=O)(=O)N2CCOC2CNC(=O)C(=O)NCCCN2CCOCC2)cc1 (stereo not shown) | -0.206% |
| O=S(=O)(Nc1nc2ccccc2nc1NCc1ccco1)c1ccc(Cl)cc1 | 5.49% |

| SMILES | hERG current change (%, negative = inhibition) at 10uM |
| --- | --- |
| c1cc(-c2nn[nH]n2)ccc1CN1CCCCC1 | 7.76% |
| CC1CCCN(C(=O)C2CCN(S(=O)(=O)c3cccc4cccnc34)CC2)C1 (stereo not shown) | -7.15% |
| N#Cc1cc([N+](=O)[O-])ccc1Oc1cccc(/C=N/NC(=O)c2cccc(Cl)c2)c1 | -20.3% |
| CCOC(=O)CN1c2ccccc2NC(=O)CC1C (stereo not shown) | -2.79% |
| Cc1ccc(N(CC(=O)NC2CCCC2)C(=O)c2ccc(C)s2)cc1 | -7% |
| O=c1c2ccccc2[nH]c(=S)n1Cc1ccccc1 | 12.9% |
| Cc1ccc(NC(=S)N(Cc2ccco2)C(C)c2cccs2)c(Cl)c1 (stereo not shown) | 4.28% |
| CN(C)c1ccc(C(c2nnnn2C(C)(C)C)N2CCN(C(=O)c3ccco3)CC2)cc1 (stereo not shown) | -13.8% |
| Cc1ccc(OCC(=O)Nc2ccc3c(c2)C(=O)NC3=O)c(C)c1 | 9.45% |
| CCn1c(SC)nnc1-c1nn(-c2ccccc2)ccc1=O | 11.3% |
| COc1ccc2nc(NC(=O)CSc3nnc(-c4ccoc4C)n3C)sc2c1 | -8.85% |
| Cc1ccc2c(C)c(C(=O)Nc3c(C)n(C)n(-c4ccccc4)c3=O)oc2c1 | -2.96% |
| CCOC(=O)C1CCN(C(=O)CCc2ccc(S(=O)(=O)NC(C)C)cc2)CC1 | -0.614% |
| O=C(Nc1nc2ccccc2s1)c1ccccc1 | 48% |
| CC(C)=CCSc1nnc([C@@H](NC(=O)OC(C)(C)C)C(C)C)o1 | -17.3% |
| COc1ccc(S(=O)(=O)N2CCC(C(=O)N[C@H](C(=O)NCc3ccncc3)C(C)C)CC2)cc1 | 14.5% |
| O=C(CN1CCOCC1)Nc1ccc2c(c1)OC(F)(F)O2 | 1.72% |
| CCCCn1c(N)c(N(CC)C(=O)CCNC(=O)NC23CC4CC(CC(C4)C2)C3)c(=O)[nH]c1=O | 8.45% |
| CC(=O)C(=Cc1cc(C)n(-c2ccccc2)c1C)C(C)=O | 11.4% |
| CC(C)(O)CC[C@@H](O)[C@](C)(O)[C@H]1CC[C@@]2(O)C3=CC(=O)[C@@H]4C[C@@H](O)[C@@H](O)C[C@]4(C)[C@H]3CC[C@]12C | 20.4% |
| CC1CCCC(NC(=O)COC(=O)c2cc(S(=O)(=O)N3CCOCC3)ccc2F)C1C (stereo not shown) | 9.77% |
| O=S1(=O)C=C(SCCN2CCCC2)c2ccccc21 | -16.4% |

| SMILES | hERG current change (%, negative = inhibition) at 10uM |
| --- | --- |
| O=c1cc(N2CCCCC2)c(-c2ccccc2)nn1Cc1cccc(F)c1 | -37.4% |
| O=C(c1ccc(F)cc1)c1cnc(Nc2ccccc2)s1 | 33% |
| Cc1c(C(=O)O)sc(S(=O)(=O)N2CCN(C(=O)Cc3ccc(F)cc3)CC2)c1C(=O)O | 27.5% |
| COc1ccc(N2CC(NS(=O)(=O)c3cccnc3)CC2=O)cc1 (stereo not shown) | 20.1% |
| O=C(Nc1cc2c3c(c1)CC(=O)N3CCC2)c1ccc(Cl)cc1 | -42.2% |
| CC(=O)NS(=O)(=O)c1ccc(NC(=O)c2ccc(NC(=O)c3cccs3)cc2)cc1 | 2.48% |
| CCCC(=O)NC(Oc1ccccc1Cl)C(Cl)(Cl)Cl (stereo not shown) | -5.26% |
| Cc1ccc(NS(=O)(=O)c2ccc(Cl)s2)nc1 | 18.8% |
| O=C(/C=C/c1ccc([N+](=O)[O-])s1)N1CCN(c2ccccc2)CC1 | -37% |
| Cc1ccc(N=C2NC(=O)C(CO)(CO)S2)cc1 | 16.1% |
| Cc1ccc(NC(=O)[C@@H](C)NC(=O)[C@@H]2Cc3ccccc3CN2)cc1 | -14.9% |
| CCc1ccccc1NC(=O)NCc1ccc2c(c1)OCO2 | 22.9% |
| CCOC(=O)C(=CNc1ccc(C(O)(C(=O)OCC)C(F)(F)F)cc1C)C(=O)OCC (stereo not shown) | -10.3% |
| CC(C)(C)C(=O)Nc1ccc(N2CCN(S(C)(=O)=O)CC2)cc1 | 13.2% |
| CS(=O)(=O)Nc1ccc(C(=O)CC(=O)Nc2ccc([N+](=O)[O-])cc2)cc1 | -60.7% |
| Cc1cc(C)nc(NS(=O)(=O)c2ccc(NC(=O)Nc3ccccc3)cc2)n1 | 29.4% |
| O=C(O)CCc1ccc(-c2ccc(Br)cc2)n1Cc1ccco1 | 9.31% |
| CC(=O)Cc1nsc(NC(=O)c2cccc(F)c2)n1 | 12.5% |
| COc1ccc2c(CCNC(=O)c3ccc([N+](=O)[O-])cc3)c[nH]c2c1 | 20.9% |
| COc1ccc(C(CNC(=O)c2ccc(-c3ccccc3Cl)o2)N2CCOCC2)cc1 (stereo not shown) | -23.7% |
| CC(C)Cc1nc2sc3c(SCC(N)=O)ncnc3c2c2c1CCC2 | 19.7% |
| COc1cc(C(=O)N2CCN(c3ccc(C)cc3C)CC2)cc(OC)c1OC | -19.7% |
